Experimental data from paper PMC10963788.
These are yes or no findings as the source states them, for the method shown. For part of these data: In cells and extracts the contact can be indirect. Some entries that bind do so weakly or less than the wild type. For part of these data: Sequences can lack the tags named with a protein. Values belong to the binder of their own block, whether it stands above or below them.

Tests used:
[1] = molecular target: T1, vesicle-trafficking protein SEC22B, mouse, endogenous (mouse (endogenous in mouse brain tissue, SIM-A9 cells and hippocampal slice cultures)) (UniProt O08547); experiment: co-IP; protein lysates of mouse organotypic hippocampal slice cultures, with Ska2 knockdown or control; precipitating antibody not stated for this experiment
T1 sequence: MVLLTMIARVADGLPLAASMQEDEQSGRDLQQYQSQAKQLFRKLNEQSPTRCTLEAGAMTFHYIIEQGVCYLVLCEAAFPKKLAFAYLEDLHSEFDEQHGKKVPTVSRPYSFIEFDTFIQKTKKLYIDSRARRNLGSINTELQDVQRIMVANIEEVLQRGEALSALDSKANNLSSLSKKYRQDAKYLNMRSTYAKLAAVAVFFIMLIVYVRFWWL

[2] = molecular target: T2, spindle and kinetochore-associated complex subunit 2 (SKA2), mouse, endogenous (mouse (endogenous in mouse brain tissue and SIM-A9 cells)) (UniProt Q9CR46); experiment: co-IP; SKA2 IP from mouse prefrontal cortex, hippocampus and amygdala tissue lysates; 2.5 μg antibody overnight at 4 °C, protein G Dynabeads, washed with PBS; western blot
T2 sequence: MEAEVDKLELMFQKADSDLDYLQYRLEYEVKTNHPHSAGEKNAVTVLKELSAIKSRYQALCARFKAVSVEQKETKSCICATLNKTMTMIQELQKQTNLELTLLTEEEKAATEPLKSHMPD

[3] = molecular target: T1, vesicle-trafficking protein SEC22B, mouse, endogenous (mouse (endogenous in mouse brain tissue, SIM-A9 cells and hippocampal slice cultures)); experiment: co-IP; SEC22B IP or SNAP29 IP from SIM-A9 cell lysates (Co-IP buffer: 20 mM tris-HCl pH 8.0, 100 mM NaCl, 1 mM EDTA, 0.5% Igepal); cells with Ska2 knockdown, Ska2 overexpression, Fkbp5 overexpression, Fkbp5 knockout or their controls; western blot, quantified
[4] = molecular target: T3, synaptosomal-associated protein 29 (SNAP29), mouse, endogenous (mouse (endogenous in mouse brain tissue, SIM-A9 cells and hippocampal slice cultures)) (UniProt Q9ERB0); experiment: as above
T3 sequence: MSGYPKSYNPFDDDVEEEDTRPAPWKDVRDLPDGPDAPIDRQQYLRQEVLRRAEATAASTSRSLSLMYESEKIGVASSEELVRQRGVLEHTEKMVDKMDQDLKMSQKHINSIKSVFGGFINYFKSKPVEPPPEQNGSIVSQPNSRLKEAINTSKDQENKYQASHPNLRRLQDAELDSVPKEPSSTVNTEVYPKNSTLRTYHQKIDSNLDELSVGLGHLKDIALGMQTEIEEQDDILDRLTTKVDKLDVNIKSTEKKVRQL

[5] = molecular target: T3, synaptosomal-associated protein 29 (SNAP29), mouse, endogenous (mouse (endogenous in mouse brain tissue, SIM-A9 cells and hippocampal slice cultures)); experiment: co-IP; SNAP29 IP from tissue homogenates of the mouse hippocampus
[6] = molecular target: T4, HIS-SKA2 (Abcam, AB199577-1001) (UniProt Q8WVK7); experiment: pull-down; HIS pull-down: 200 ng HIS-SKA2 immobilised on BSA-blocked anti-His protein G Dynabeads; 100 ng purified DDK-tagged protein; 400 μl binding buffer (Promega, V870B); eluted at room temperature and at 95 °C; western blot against HIS and FLAG; both purified
T4 sequence: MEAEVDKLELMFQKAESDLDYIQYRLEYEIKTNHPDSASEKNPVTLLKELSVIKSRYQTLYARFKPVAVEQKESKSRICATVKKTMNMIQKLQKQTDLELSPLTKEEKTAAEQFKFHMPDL

B5: SKA1, mouse, endogenous (protein, UniProt Q9CPV1 1-254)
chain: MDSELEDLCSYVNEKIGNIKKILSIRNLGQDPALKTTLSKIGDEIIAVNELLNKFELEIQYQEQTNSSLKELCESLREECEDVEHLKEHVPPHLPQVTATQSLVHKPEPDPKESDKAEEPGLPKKPPREQRIIKEMQFITMDEFSDVPAYMKSRLTYCQINDIIKEINKAVVSKYKIMHQPKASMSSVKRNLYQRFINEETKDTKGHHFIVEADIKEFTALKVDKRFYVIMHILRHCHRLSEVRGGGLTRYVIT
binding [5]: no binding

B6: SKA3, mouse, endogenous (protein, UniProt Q8C263 1-411)
chain: MNPIQSFHCKLRGLATTLDSETARLLRALDGEDSDFEDSPGRILHDLHSEVQTLKDNVNALLDEARLENQESTRFKKATKILMEKNSADVRKLREFFQKYGYQARDKEDSGCEHRVNNSTPELAVCKDIQKAGVKELSDPCVPSGSVSEEPLRSPQLSDFGLQRYIISQVPANPPQTAASLKEERVAETPPAKDPSVQVLKTPRCALRMDDFECETPKLEHFGISEHTMCLNEDYTMGLKNMKNIKSSLLSGVSGEAIGTGPVTSDNSFAIPGPIIQQMEENDVEYVSSPLPPKFCTPGLKIPSTMDRTDLVSIDYPLSKPNSSSTDLEIKDCVPLILNSDECYQSFAEPPSSAITSCENFATPSPPKVTAIPEDILQMITKHSSNLASPLDVKVMPRRKGTRGAANKENW
binding [5]: no binding

B7: SNAP23-DDK (Origene, TP301596) (protein, UniProt O00161 1-211)
chain: MDNLSSEEIQQRAHQITDESLESTRRILGLAIESQDAGIKTITMLDEQKEQLNRIEEGLDQINKDMRETEKTLTELNKCCGLCVCPCNRTKNFESGKAYKTTWGDGGENSPCNVVSKQPGPVTNGQLQQPTTGAASGGYIKRITNDAREDEMEENLTQVGSILGNLKDMALNIGNEIDAQNPQIKRITDKADTNRDRIDIANARAKKLIDS
binding [6]: no binding (tested: 100 ng in 400 μl)

Continued, values first:

binding [1]: binds
binding [2]: binds
binding [3]: binds
B1: synaptosomal-associated protein 29 (SNAP29), mouse, endogenous (protein, UniProt Q9ERB0 1-260)
chain: T3 sequence

binding [4]: binds
B2: spindle and kinetochore-associated complex subunit 2 (SKA2), mouse, endogenous (protein, UniProt Q9CR46 1-120)
chain: T2 sequence

binding [3]: binds
B3: syntaxin 3 (STX3), mouse, endogenous (protein, UniProt Q64704 1-289)
chain: MKDRLEQLKAKQLTQDDDTDEVEIAIDNTAFMDEFFSEIEETRLNIDKISEHVEEAKKLYSIILSAPIPEPKTKDDLEQLTTEIKKRANNVRNKLKSMEKHIEEDEVRSSADLRIRKSQHSVLSRKFVEVMTKYNEAQVDFRERSKGRIQRQLEITGKKTTDEELEEMLESGNPAIFTSGIIDSQISKQALSEIEGRHKDIVRLESSIKELHDMFMDIAMLVENQGEMLDNIELNVMHTVDHVEKARDETKRAMKYQGQARKKLIIIIVVVVVLLGILALIIGLSVGLK

binding [2]: binds
B4: vesicle-trafficking protein SEC22B, mouse, endogenous (protein, UniProt O08547 1-215)
chain: T1 sequence
